The source made the active and inactive calls. How the calls were made is not given here.
System: Vero
Assay: cells
Format: functional
Conditions: Chlorocebus sabaeus

CNC1CCc2cc(OC)c(OC)c(OC)c2-c2ccc(SC)c(=O)cc21 (stereo unspecified)
CC50: active: < 50 nM
